Experimental data published in patent US20150056162A1 (published 2015).
Where two headings read alike, the source gives them in different places.

Assays:
[1] = target: T1, IL-13Rα2, biotinylated (human, UniProt Q14627 27-343, biotinylated (site not stated)); assay: SPR; kinetic
T1 chain: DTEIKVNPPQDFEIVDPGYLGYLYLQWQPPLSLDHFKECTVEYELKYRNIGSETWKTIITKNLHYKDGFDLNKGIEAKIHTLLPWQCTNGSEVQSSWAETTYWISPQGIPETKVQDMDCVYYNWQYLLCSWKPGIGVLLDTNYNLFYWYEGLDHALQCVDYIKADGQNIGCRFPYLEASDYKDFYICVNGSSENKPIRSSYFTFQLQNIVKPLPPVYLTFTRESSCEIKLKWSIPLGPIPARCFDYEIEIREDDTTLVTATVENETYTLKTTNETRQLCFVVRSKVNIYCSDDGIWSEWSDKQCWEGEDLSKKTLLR

[2] = target: T1, IL-13Rα2, biotinylated; assay: SPR; kinetic

Kd [1]: 1 pM
Kd [2]: 1 pM
B1: wild-type human IL-13 (ligand)
chain: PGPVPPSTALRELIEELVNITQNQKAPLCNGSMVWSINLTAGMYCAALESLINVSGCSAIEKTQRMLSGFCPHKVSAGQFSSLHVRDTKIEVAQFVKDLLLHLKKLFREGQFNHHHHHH
